Measured values: the supplement of paper PMC12578646, “Prodrug florfenicol amine is activated by intrinsic resistance to target Mycobacterium abscessus” (Nature Microbiology, 2025)

Columns and labels:
[1] = tested on: Mycobacterium abscessus ATCC 19977 WhiB7 A51T
Procedure: (§1)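 384-well two-fold dose series, two replicates; 5 days at 37 °C, then 24 h with resazurin; fluorescence scaled to growth and killed controls.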

[2] = tested on: Mycobacterium abscessus ATCC 19977 WhiB7 R76del
Procedure: as §1

[3] = tested on: Mycobacterium abscessus ATCC 19977 WhiB7 L37P
Procedure: as §1

[4] = tested on: Mycobacterium abscessus ATCC 19977 Eis2 T258R
Procedure: as §1

[5] = tested on: Mycobacterium abscessus ATCC 19977 Eis2 Y227D
Procedure: as §1

[6] = tested on: Mycobacterium abscessus ATCC 19977 Eis2 Y255*
Procedure: as §1

[7] = tested on: Mycobacterium abscessus ATCC 19977 Eis2 E120fs
Procedure: as §1

[8] = tested on: Mycobacterium abscessus ATCC 19977 ΔwhiB7
Procedure: as §1

[9] = tested on: Mycobacterium abscessus ATCC 19977 Δeis2
Procedure: as §1

[10] = tested on: Mycobacterium abscessus ATCC 19977 WhiB7 F24fs
Procedure: as §1

[11] = tested on: Mycobacterium abscessus ATCC 19977 Eis2 Y284*
Procedure: as §1

[12] = tested on: Mycobacterium abscessus ATCC 19977 WhiB7 T70fs
Procedure: as §1

[13] = tested on: Mycobacterium abscessus ATCC 19977 WhiB7 A51T; experiment: growth relative to untreated wells; higher = more growth (less inhibition)
Procedure: as §1

[14] = tested on: Mycobacterium abscessus ATCC 19977 Δcat; experiment: growth relative to untreated wells; higher = more growth
Procedure: (§2)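 Two-fold dose series, three replicates; 5 days at 37 °C, then 24 h with resazurin; fluorescence scaled to growth and killed controls.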

[15] = tested on: Mycobacterium abscessus ATCC 19977 ΔwhiB7; experiment: as above
Procedure: as §2

[16] = tested on: Mycobacterium abscessus ATCC 19977; experiment: as above
Procedure: as §2

NCC[C@H](O)C(=O)N[C@@H]1C[C@H](N)[C@@H](O[C@H]2O[C@H](CN)[C@@H](O)[C@H](O)[C@H]2O)[C@H](O)[C@H]1O[C@H]1O[C@H](CO)[C@@H](O)[C@H](N)[C@H]1O [amikacin]
Conditions	IC50 [µg/mL]
[1]	0.317 (≈ 0.542 µM)
[2]	0.29 (≈ 0.495 µM)
[3]	0.291 (≈ 0.497 µM)
[4]	0.317 (≈ 0.542 µM)
[5]	0.449 (≈ 0.767 µM)
[6]	0.277 (≈ 0.473 µM)
[7]	0.309 (≈ 0.527 µM)
[8]	0.251 (≈ 0.428 µM)
[9]	0.259 (≈ 0.441 µM)
[10]	0.317 (≈ 0.542 µM)
[11]	0.268 (≈ 0.458 µM)
[12]	0.287 (≈ 0.49 µM)

[13]
Conditions	growth [%]
0.03125 µg/mL	113
0.0625 µg/mL	112
0.125 µg/mL	112
0.25 µg/mL	115
0.5 µg/mL	-0.848
1 µg/mL	-1.2
2 µg/mL	-1.35
4 µg/mL	-1.69
8 µg/mL	-2.05
16 µg/mL	-0.73
32 µg/mL	-0.821
64 µg/mL	0.722

CC[C@H]1OC(=O)[C@H](C)[C@@H](O[C@H]2C[C@@](C)(OC)[C@@H](O)[C@H](C)O2)[C@H](C)[C@@H](O[C@@H]2O[C@H](C)C[C@H](N(C)C)[C@H]2O)[C@](C)(O)C[C@@H](C)CN(C)[C@H](C)[C@@H](O)[C@]1(C)O [azithromycin]
Conditions	IC50 [µg/mL]
[1]	0.578 (≈ 0.772 µM)
[2]	0.477 (≈ 0.637 µM)
[3]	0.505 (≈ 0.675 µM)
[4]	0.57 (≈ 0.76 µM)
[5]	0.872 (≈ 1.16 µM)
[6]	0.747 (≈ 0.997 µM)
[7]	0.972 (≈ 1.3 µM)
[8]	0.474 (≈ 0.633 µM)
[9]	0.602 (≈ 0.804 µM)
[10]	0.459 (≈ 0.613 µM)
[11]	0.832 (≈ 1.11 µM)
[12]	0.345 (≈ 0.461 µM)

[13]
Conditions	growth [%]
0.03125 µg/mL	98.7
0.0625 µg/mL	111
0.125 µg/mL	115
0.25 µg/mL	118
0.5 µg/mL	71.4
1 µg/mL	3.18
2 µg/mL	-2.03
4 µg/mL	-3.55
8 µg/mL	0.812
16 µg/mL	-0.952
32 µg/mL	-2.08
64 µg/mL	-1.57

CO[C@@]1(NC(=O)Cc2cccs2)C(=O)N2C(C(=O)O)=C(COC(N)=O)CS[C@@H]21 [cefoxitin]
Conditions	IC50 [µg/mL]
[1]	14.3 (≈ 33.4 µM)
[2]	13.9 (≈ 32.5 µM)
[3]	15.5 (≈ 36.2 µM)
[4]	14.3 (≈ 33.4 µM)
[5]	13.7 (≈ 32 µM)
[6]	13.8 (≈ 32.3 µM)
[7]	10.1 (≈ 23.6 µM)
[8]	15.9 (≈ 37.2 µM)
[9]	8.67 (≈ 20.3 µM)
[10]	14.1 (≈ 33 µM)
[11]	9.24 (≈ 21.6 µM)
[12]	14 (≈ 32.7 µM)

[13]
Conditions	growth [%]
0.5 µg/mL	101
1 µg/mL	116
2 µg/mL	98.42
4 µg/mL	119
8 µg/mL	139
16 µg/mL	13.9
32 µg/mL	-2.24
64 µg/mL	-7.96
128 µg/mL	-8.58
256 µg/mL	1.19
512 µg/mL	-6.16
1024 µg/mL	-1.06

O=C(N[C@H](CO)[C@H](O)c1ccc([N+](=O)[O-])cc1)C(Cl)Cl [chloramphenicol]
Conditions	IC50 [µg/mL]
[1]	31.5 (≈ 97.4 µM)
[2]	23.1 (≈ 71.6 µM)
[3]	31.8 (≈ 98.4 µM)
[4]	146 (≈ 453 µM)
[5]	262 (≈ 811 µM)
[6]	210 (≈ 649 µM)
[7]	246 (≈ 760 µM)
[8]	31.1 (≈ 96.4 µM)
[9]	133 (≈ 413 µM)
[10]	23.9 (≈ 73.9 µM)
[11]	176 (≈ 546 µM)
[12]	24.8 (≈ 76.6 µM)

growth [%]
Conditions	[13]	[14]	[15]	[16]
0.5 µg/mL	104	–	–	–
1 µg/mL	106	96.6	98	95.3
2 µg/mL	106	103	104	94.6
4 µg/mL	119	102	107	107
8 µg/mL	123	91.9	110	99.6
16 µg/mL	102	72.2	114	115
32 µg/mL	45.4	49.3	105	112
64 µg/mL	11.7	6.65	75.9	112
128 µg/mL	8.16	0.934	9.35	115
256 µg/mL	-2.68	-0.778	2.64	94
512 µg/mL	-2.83	0.377	3.44	20.2
1024 µg/mL	-3.32	–	–	–

CC[C@H]1OC(=O)[C@H](C)[C@@H](O[C@H]2C[C@@](C)(OC)[C@@H](O)[C@H](C)O2)[C@H](C)[C@@H](O[C@@H]2O[C@H](C)C[C@H](N(C)C)[C@H]2O)[C@](C)(OC)C[C@@H](C)C(=O)[C@H](C)[C@@H](O)[C@]1(C)O [clarithromycin]
Conditions	IC50 [µg/mL]
[1]	0.0626 (≈ 0.0837 µM)
[2]	0.0607 (≈ 0.0811 µM)
[3]	0.0633 (≈ 0.0846 µM)
[4]	0.0724 (≈ 0.0968 µM)
[5]	0.0945 (≈ 0.126 µM)
[6]	0.0888 (≈ 0.119 µM)
[7]	0.112 (≈ 0.149 µM)
[8]	0.065 (≈ 0.0869 µM)
[9]	0.0707 (≈ 0.0946 µM)
[10]	0.0583 (≈ 0.0779 µM)
[11]	0.0962 (≈ 0.129 µM)
[12]	0.0573 (≈ 0.0766 µM)

[13]
Conditions	growth [%]
0.03125 µg/mL	132
0.0625 µg/mL	49.1
0.125 µg/mL	7.95
0.25 µg/mL	-0.625
0.5 µg/mL	-1.53
1 µg/mL	-3.11
2 µg/mL	-2.97
4 µg/mL	-3.22
8 µg/mL	-3.26
16 µg/mL	-2.87
32 µg/mL	-3.01
64 µg/mL	-1.4

CN(C)[C@@H]1C(O)=C(C(N)=O)C(=O)[C@@]2(O)C(O)=C3C(=O)c4c(O)c(NC(=O)CN5CCCC5)cc(F)c4C[C@H]3C[C@@H]12 [eravacycline]
Conditions	IC50 [µg/mL]
[1]	0.23 (≈ 0.411 µM)
[2]	0.344 (≈ 0.615 µM)
[3]	0.345 (≈ 0.618 µM)
[4]	0.386 (≈ 0.691 µM)
[5]	0.418 (≈ 0.748 µM)
[6]	0.441 (≈ 0.79 µM)
[7]	0.417 (≈ 0.747 µM)
[8]	0.231 (≈ 0.413 µM)
[9]	0.3 (≈ 0.537 µM)
[10]	0.329 (≈ 0.59 µM)
[11]	0.435 (≈ 0.78 µM)
[12]	0.354 (≈ 0.634 µM)

[13]
Conditions	growth [%]
0.003125 µg/mL	99.19
0.00625 µg/mL	106
0.0125 µg/mL	100
0.025 µg/mL	102
0.05 µg/mL	89.5
0.1 µg/mL	99.1
0.2 µg/mL	135
0.4 µg/mL	-3.04
0.8 µg/mL	-3.81
1.6 µg/mL	-5.04
3.2 µg/mL	-6.18
6.4 µg/mL	-7.29

Converted amounts (≈) assume the structure as drawn. M. abscessus ATCC 19977 and its deletion, point and complemented mutants after 5 days of drug at 37 °C plus 24 h of resazurin. Growth in % of untreated wells at the dose given (lower = more inhibition); checkerboards give % inhibition (higher = more inhibition); IC50 from the fitted curve (lower = more potent). No active / inactive call. IC50 values come from the same 384-well curves. Growth is not capped and can exceed 100%. The direction of the checkerboard scale is read from the raw signals. Capreomycin is a mixture.
